# About 160 (5.9%) of roughly 2,700 compounds showed an effect of 50% or more. This is one part of the list.
# Molecular target: Nonstructural protein 3 (Zika virus) (UniProt A0A024AXB9)
# [1] = PRVABC59, Concentration 15.0 uM, Number of replicates 1.0
# [2] = PRVABC59, Concentration 50.0 uM, Number of replicates 1.0
# [3] = PRVABC59, Concentration 10.0 uM, Number of replicates 1.0
# Sequence of UniProt A0A024AXB9 (A0A024AXB9 as listed by the source): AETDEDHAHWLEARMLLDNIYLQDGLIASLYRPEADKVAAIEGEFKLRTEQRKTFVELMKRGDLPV
smiles,measurement,setting,value
Cc1cc(CO)c2cccc(NCc3c(C)noc3C)c2n1,inhibition,"PRVABC59, Concentration 99.9 uM, Number of replicates 2.0, Standard deviation 0.41367502705709386 %",-9.09%
c1cnc(N2CCOCC2)c(CN2CC[C@H](c3c[nH]c4ccccc34)C2)c1,inhibition,"PRVABC59, Concentration 49.5 uM, Number of replicates 2.0, Standard deviation 0.5816150455075427 %",4.93%
same,inhibition,"PRVABC59, Concentration 99.01 uM, Number of replicates 2.0, Standard deviation 1.6761828626765602 %",10.2%
same,inhibition,"PRVABC59, Concentration 198.0 uM, Number of replicates 2.0, Standard deviation 1.4600963075359947 %",18.9%
CC(=O)N[C@@H](CCCN)C(=O)Nc1ccccc1Cc1cccc2c(CO)cc(C)nc12,inhibition,"PRVABC59, Concentration 49.95 uM, Number of replicates 2.0, Standard deviation 1.2164295290794762 %",11.2%
same,inhibition,"PRVABC59, Concentration 99.9 uM, Number of replicates 2.0, Standard deviation 0.5089666913167087 %",30.6%
Cc1cc(CO)c2cccc(CC(=O)N[C@@H](CCC(N)=O)C(=O)O)c2n1,inhibition,"PRVABC59, Concentration 49.95 uM, Number of replicates 2.0, Standard deviation 0.13741625923449508 %",69.6%
same,inhibition,"PRVABC59, Concentration 99.9 uM, Number of replicates 2.0, Standard deviation 0.11197439842459092 %",81.6%
Cc1cc(CO)c2cccc(Cc3ccccc3NC(=O)CN3CCOCC3)c2n1,inhibition,"PRVABC59, Concentration 49.95 uM, Number of replicates 2.0, Standard deviation 1.084098076383578 %",0.101%
same,inhibition,"PRVABC59, Concentration 99.9 uM, Number of replicates 2.0, Standard deviation 0.7329111048936454 %",5.2%
CN(Cc1c(Cl)cccc1Cl)C(=O)c1cc(Cl)ccc1NS(=O)(=O)c1ccc(Oc2ccccc2Cl)cc1,inhibition,[1],10.4%
O=Cc1ccc(N2CCC(C(=O)Nc3cc(Br)cc(C(F)(F)F)c3)CC2)cc1,inhibition,[2],21.9%
O=C(c1ccn([C@H]2CCCNC2)n1)N1CCC[C@H](c2ccccc2)C1,inhibition,"PRVABC59, Concentration 49.5 uM, Number of replicates 2.0, Standard deviation 1.6630114667547238 %",2.87%
same,inhibition,"PRVABC59, Concentration 99.01 uM, Number of replicates 2.0, Standard deviation 1.0930112497598132 %",3.54%
same,inhibition,"PRVABC59, Concentration 198.0 uM, Number of replicates 2.0, Standard deviation 1.7937643092396465 %",3.5%
O=C(Nc1ccc(-c2ccccn2)cc1)c1cc(Cl)ccc1NS(=O)(=O)c1ccc(Oc2ccccc2Cl)cc1,inhibition,[1],58.7%
O=Cc1ccc(N2CCC(C(=O)NCc3ccc(Br)cc3F)CC2)cc1,inhibition,[3],17.2%
CSc1ncc(C#N)c(NC(=O)c2cc(Cl)ccc2NS(=O)(=O)c2ccc(Oc3ccccc3Cl)cc2)n1,inhibition,[1],21.8%
CC(C)Sc1ccccc1NC(=O)C1CCN(c2ccc(C=O)cc2)CC1,inhibition,[2],16.3%
O=C(Nc1ccc([N+](=O)[O-])cc1Cl)c1cc(Cl)ccc1NS(=O)(=O)c1ccc(Oc2ccccc2Cl)cc1,inhibition,[1],24%
O=C(NCCc1c[nH]c2cccnc12)[C@@]1(c2ccc(F)cc2)CCCNC1,inhibition,"PRVABC59, Concentration 49.5 uM, Number of replicates 2.0, Standard deviation 1.1099611949443484 %",2.3%
same,inhibition,"PRVABC59, Concentration 99.01 uM, Number of replicates 2.0, Standard deviation 0.8664361984862207 %",-0.092%
same,inhibition,"PRVABC59, Concentration 198.0 uM, Number of replicates 2.0, Standard deviation 1.4816570758007732 %",-1.42%
C[C@@H](c1ccccc1)N(C(=O)C1CCN(c2ccc(C=O)cc2)CC1)[C@@H](C)c1ccccc1,inhibition,[2],26.7%
O=C(NC[C@H](c1cccnc1)N1CCOCC1)c1cc(Cl)ccc1NS(=O)(=O)c1ccc(Oc2ccccc2Cl)cc1,inhibition,[1],2.85%
Cc1cc(CO)c2cccc(Cc3ccccc3NC(=O)[C@@H]3CCCC[C@H]3C(=O)O)c2n1,inhibition,"PRVABC59, Concentration 49.95 uM, Number of replicates 2.0, Standard deviation 1.5421677066029247 %",1.35%
same,inhibition,"PRVABC59, Concentration 99.9 uM, Number of replicates 2.0, Standard deviation 1.4251056567274625 %",7.62%
O=Cc1ccc(N2CCC(C(=O)NCc3nnc(-c4ccccc4)o3)CC2)cc1,inhibition,[3],26%
Cc1cc(CO)c2cccc(Cc3ccccc3NC(=O)c3ccno3)c2n1,inhibition,"PRVABC59, Concentration 49.95 uM, Number of replicates 2.0, Standard deviation 1.5828849129389049 %",2.18%
same,inhibition,"PRVABC59, Concentration 99.9 uM, Number of replicates 2.0, Standard deviation 2.269989474171758 %",5.92%
Cc1cc(CO)c2cccc(Nc3ccc(C(=O)O)o3)c2n1,inhibition,"PRVABC59, Concentration 49.95 uM, Number of replicates 2.0, Standard deviation 2.70478007233281 %",3.98%
same,inhibition,"PRVABC59, Concentration 99.9 uM, Number of replicates 2.0, Standard deviation 2.574308096446364 %",5.17%
C[C@H](NC(=O)C1CCN(c2ccc(C=O)cc2)CC1)c1cccc(C(F)(F)F)c1,inhibition,[3],8.54%

# Source: ChEMBL document CHEMBL5606458, “ASAP - ZIKV NS2B-NS3 protease fluorescence single point” (2024)
